Patent US20260265394A1 (CARTESIAN THERAPEUTICS, published 2026)

Target: T1, allophycocyanin (APC)-conjugated BCMA (Recombinant Human TNFRSF17 protein, Fc-tagged, APC labeled); Creative … (human, UniProt Q02223 1-54, allophycocyanin (APC) conjugated)
T1 construct: Bought reagent, used at 0.4 ug/mL to stain CAR T cells; also called BCMA-APC; recombinant BCMA-APC; not shown: Fc tag
T1 sequence (looked up): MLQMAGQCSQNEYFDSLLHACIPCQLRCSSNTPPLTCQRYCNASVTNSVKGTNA
Assay: flow cytometry, CAR T cells stained with BCMA-APC
Experimental: CAR T cells obtained from the above-described process were tested for viability, CAR protein expression, BCMA binding, cytotoxicity, i.e., the ability to kill BCMA+ myeloma (tumor) cells, and cytokine production. Resistance of the CAR protein to downregulation was tested by incubation of CAR T cells with, or without, BCMA+ myeloma cells, followed by analysis of CAR expression. Viability, CAR expression, and BCMA binding were determined by flow cytometry on a Guava® EasyCyte® 12HT Flow cytometer (Luminex). To test viability, a sample of the CAR T cells was mixed with propidium iodide and acridine orange and analyzed by fluorescence microscopy using a Nexcelom Auto 2000 cytometer. To test CAR protein expression and BCMA binding, a sample of the CAR T cells was incubated with 0.4 μg/mL of allophycocyanin (APC)-conjugated BCMA (Recombinant Human TNFRSF17 protein, Fc-tagged, APC labeled; Creative Biomart, Shirley, NY). CAR expression was assessed on the flow cytometer with electronic gating on fluorescence in the red channel to detect presence or absence of emission from BCMA-APC on CAR-positive and CAR-negative cells. BCMA binding was determined by measuring the intensity of fluorescence in the red channel to determine the relative quantity of BCMA-APC bound to labelled CAR-positive cells. […]

B1: Anti-BCMA CAR containing WT CD3z only (SEQ ID NO: 1) (receptor)
chain: DIVLTQSPASLAVSPGQRATITCRASESVTILGSHLIHWYQQKPGQPPKLLINLASNVNTGVPARFSGSGSGTDFTLTISSVEPEDTANYYCLQSRTLPRTFGQGTKVEIKGSTSGSGKPGSGEGSTKGQIQLVQSGPELKKPGGSVKISCKASGYTFTDYSINWVRQAPGKGLEWVGWINTETREPAYAYDFRGRFTFSADTSKSMAYLQINSLRAEDTAVYYCALDYTYGMDYWGQGTLVTVSSFVPVFLPAKPTTTPAPRPPTPAPTIASQPLSLRPEACRPAAGGAVHTRGLDFACDIYIWAPLAGTCGVLLLSLVITLYCNHRN[about 120 residues skipped]
notes: Chimeric antigen receptor (signal peptide-scFv-CD8-CD3-zeta) expressed on human CD8+ T cells after electroporation of IVT mRNA; The entry includes the signal peptide; also called wild-type CAR
  binding result: binds
